Results as given in PubChem BioAssay AID504832 (National Center for Advancing Translational Sciences (NCATS), 2011).
Screen size: about 310,000 compounds; about 18,000 (5.8%) were called active. The inconclusive results got no clear call from the source; some entries with a clear call stand among them for comparison. The call rests on the fitted dose curve; in most records, active means well fitted inhibition curve with a large enough effect; inconclusive means small, poorly fitted or top-dose-only effect, or another doubt; inactive means no such curve, though single readings can be large or run the other way. No potency is given beside an inconclusive call; the fits are too rough.
Potency means the concentration at half of the fitted maximal effect; tags describe the fitted curve by direction and shape.

Test: Primary qHTS for delayed death inhibitors of the malarial parasite plastid, 48 hour incubation
Settings: P. falciparum luciferase growth in erythrocytes; series mostly up to 28.7 µM
How it was run: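 In quantitative HTS format, infected erythrocytes bearing luciferase-reporter parasites were treated for a single generation at 37 C. Luminescence after adding detection reagent served as the growth measure.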
For `COc1ccc(/C=N/n2cnc3c([nH]c4ccc(F)cc43)c2=O)cc1CN1CCCC1`, the Potency was inconclusive [inhibitor, partial curve].
With `CCCN(CC(=O)Nc1cc(C)on1)CC(=O)Nc1ccccc1C` the Potency was inconclusive [inhibitor, single point].
With `Cc1cccc(C(=O)NC(C(=O)Nc2cccc(S(=O)(=O)N3CCCC3)c2)C(C)C)c1` (centres undefined) the Potency was inconclusive [inhibitor, partial curve, poor fit].
With `CC(OC(=O)Cn1[nH]c(=O)c2ccccc2c1=O)C(=O)Nc1ccc(F)cc1Cl` (centres undefined) the Potency was inconclusive [inhibitor, single point].
With `CCOC(=O)C1(CC2CC2)CCN(C(=O)c2cc(OC)nc3ccccc23)CC1` the Potency was inconclusive [inhibitor, partial curve].
With `COc1ccc(C(=O)OCC(=O)c2ccc(S(=O)(=O)N3CCCCC3)cc2)c(OC)c1` the Potency was inconclusive [inhibitor, partial curve].
With `COc1ccc(C2(CNC(=O)c3ccccc3)CCOCC2)cc1` the Potency was inconclusive [inhibitor, single point].
With `Cc1ccc(-c2sc(-c3ccccc3)nc2CC(=O)Nc2ccccc2F)cc1` the Potency was inconclusive [inhibitor, single point].
In the case of `CC(C)OC(=O)CSc1nc(N)c(C#N)c(-c2cccs2)c1C#N`, the Potency is reported as inconclusive [inhibitor, single point].
With `Cc1ccccc1CS(=O)(=O)c1nnc([C@H](CC(C)C)NC(=O)OC(C)(C)C)o1` the Potency was “inactive”.
With `C[n+]1ccc(C(=O)NCc2ccccc2)cc1` the Potency was “inactive”.
In the case of `COc1ccc(S(=O)(=O)N(CC(=O)NCCC(C)C)c2ccccc2)cc1OC`, the Potency is reported as inconclusive [inhibitor, full curve, poor fit].
With `O=c1c2ccccc2nc(CSc2ncnc3nc[nH]c23)n1-c1ccc(Cl)c(Cl)c1` the Potency was inconclusive [inhibitor, single point].
In the case of `CC1=NC2(CCCc3c2no[n+]3[O-])N(O)C1(C)C` (centres undefined), the Potency is reported as active: 7.38 µM.
In the case of `N#Cc1c(N)nc2c(c1-c1ccc(F)cc1)CCC2`, the Potency is reported as “inactive”.
With `C=CCSc1nc(N2CCOCC2)c2c(c1C#N)CC(C)(C)N(C)C2` the Potency was inconclusive [inhibitor, single point].
With `CC(=O)N1CCc2c(sc(NC(=O)C3CCN(S(=O)(=O)c4cccs4)CC3)c2C(N)=O)C1` the Potency was active: 11.7 µM.
In the case of `Cc1nc([N+](=O)[O-])c(Br)n1Cc1ccc(Cl)c(Cl)c1`, the Potency is reported as inconclusive [inhibitor, partial curve, poor fit].
In the case of `COC(=O)c1sccc1NC(=O)Nc1cccc(C(C)=O)c1`, the Potency is reported as “inactive”.
With `O=C(CN1CCN(CC(=O)Nc2ccccc2F)CC1)Nc1ccc2c(c1)OCCO2` the Potency was inconclusive [inhibitor, partial curve, poor fit].
With `COc1ccccc1CNC(=O)C1Cc2cc(S(=O)(=O)N3CCCC3)ccc2N1C(C)=O` (centres undefined) the Potency was inconclusive [inhibitor, partial curve].
With `CCc1ccccc1N(CC(=O)NCCc1ccccc1)C(=O)CCC(=O)Nc1ccccn1` the Potency was inconclusive [inhibitor, partial curve, poor fit].
In the case of `N=C1SC(CC(=O)Nc2ccc([N+](=O)[O-])cc2)C(=O)N1c1ccccc1` (centres undefined), the Potency is reported as inconclusive [inhibitor, partial curve, poor fit].
With `COc1ccc(NC(=S)N2CCC(C(=O)c3ccc(F)cc3)CC2)c(OC)c1` the Potency was “inactive”.
For `Cc1ccc(S(=O)(=O)CCC(=O)NC2CCCCC2)cc1`, the Potency was inconclusive [inhibitor, single point].
For `CCCCNc1cnn(-c2ccccc2)c(=O)c1Cl`, the Potency was “inactive”.
In the case of `O=C(COc1ccccc1)NCC(c1cccs1)N1CCOCC1` (centres undefined), the Potency is reported as inconclusive [inhibitor, partial curve, poor fit].
For `Cc1nc(Nc2ccccc2)c2oc3ccc(Cl)cc3c2n1`, the Potency was inconclusive [inhibitor, single point].
With `Cc1sc2cc(-c3cccc([N+](=O)[O-])c3)c(-c3cccc([N+](=O)[O-])c3)c[n+]2c1C` the Potency was active: 0.928 µM.
For `COc1cc2ncnc(NCc3ccc(Cl)cc3)c2cc1OC`, the Potency was inconclusive [inhibitor, single point].
In the case of `CCN(CC)S(=O)(=O)c1cccc(C(=O)N[C@H](C(=O)Nc2nc3ccc(F)cc3s2)C(C)C)c1`, the Potency is reported as active: 13.1 µM.
With `Cc1nnc(SCC(=O)NC2CCCCCC2)n1C(C)C` the Potency was “inactive”.
In the case of `CC1CCCC(C)N1CCNC(=O)CCc1nnc2n(Cc3ccccc3)c(=O)c3ccccc3n12` (centres undefined), the Potency is reported as inconclusive [inhibitor, full curve, poor fit].
With `Cc1cc(C)c(C)c(S(=O)(=O)N2CCN(C(=O)C3CSC4(C)CCC(=O)N34)CC2)c1C` (centres undefined) the Potency was active: 10.4 µM.
In the case of `COc1cccc(/C=N/n2c(C3CCCCC3)n[nH]c2=S)c1OC`, the Potency is reported as inconclusive [inhibitor, single point].
With `C[C@@]1(CO)[C@H](O)CC[C@@]2(C)[C@H]1CC[C@H]1C[C@@H]3C[C@@]12CC[C@]3(O)CO` the Potency was active: 0.522 µM.
For `CC(C)Oc1ccc(C2CC(=O)NC2=O)cc1` (centres undefined), the Potency was “inactive”.
For `CCOC(=O)N1CCN(C(=O)c2ccc3c(=O)n(CCc4ccccc4)c(=S)[nH]c3c2)CC1`, the Potency was inconclusive [inhibitor, single point].
In the case of `O/N=C/c1cc(Br)cc(Br)c1OCc1ccccc1`, the Potency is reported as “inactive”.
With `O=S(=O)(Nc1ccc(N2CCCCC2)cc1)c1ccc(F)c(F)c1` the Potency was “inactive”.
In the case of `Cc1ccc(OCC(=O)Oc2ccc(C)c(C)c2)cc1`, the Potency is reported as “inactive”.
In the case of `CCN(CC)C(=O)c1csc(Nc2ccc(C)cc2)n1`, the Potency is reported as inconclusive [inhibitor, single point].
With `COc1ccc(/C=C/C(=O)Nc2ccccc2C(N)=O)cc1S(=O)(=O)N1CCOCC1` the Potency was inconclusive [inhibitor, single point].
With `CCn1c(CNc2ccc(C(=O)O)cc2)nc2ccccc21` the Potency was “inactive”.
